Some of the results follow.
System: PF3D7_0420300 AP2 domain 1 (GST-tagged)
Assay: gcPBM binding intensity (ln(normalized median fluorescence intensity)); higher = stronger DNA binding
Method in brief: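 After 1 h on an Agilent 4 × 180k array of primer-extended double-stranded 36-bp intergenic genomic probes and negative controls, bound GST-tagged P. falciparum DNA-binding domains were detected with Alexa488 anti-GST antibody and scanned at 488 nm. The domains had been expressed in E. coli, and binding took place in 1× PBS with 1% milk, 0.2 mg/ml BSA, 0.5% salmon testes DNA and 0.03% Triton X-100. Binding intensity is the highest Masliner-normalised natural-log median intensity across replicate spots of either probe orientation.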

Sequence	gcPBM binding intensity (ln)
CACAGACACGGACACACACACACAAAAAAAAAAAGA [CACACA_site4436]	10.1
TATTAAAAAAATATTTGTACTTAAAATTTATTATAT [XGTACX_site1467]	8.9
TATTTTCTTTAATTAATTATTGGTCTGAATGGGGTT [CACACA_negctrl_site418]	9.1
ACAAAAAAAAAAAAAAAAAGAAGAATATATCTATAT [CACACA_negctrl_site759]	9.16
TATCATACAATATTCACACAAATAAATTGACATATT [CACACA_site5891]	9.27
TTTTTATAAAAATGAACACACACATATATATATATA [CACACA_site9160]	9.42
AATAACACTATTTAACGTACAAAAAAAAAAAAGAAA [XGTACX_site3721]	9.3
ATACTAAAAATGAATGTACACATATATATATATATA [TGCATGCA_negctrl_site209]	9.35
ATATATCTTTATATAGTGCATTAAATATGTTGTAAT [GTGCAC_site9953]	9.17
TATAATAAAATATTTTGTACGTATATTTTAATATTT [XGTACX_site2582]	9.11
AAAAAAAATAAAAATAGTACCCAAAAAATTATGAAT [XGTACX_site6641]	9.66
AGAGGAGTAAAACAAAACAAAGAGAAATAAACACAC [XGTACX_negctrl_site386]	9.84
AATTAATAAATATTATATGTTAATATTTTTTTTGTT [CACACA_negctrl_site1692]	9.06
AAAAAATATAATAATTGTACACATGCACACACAAAT [XGTACX_site1563]	9.83
TTTCATATCTTGTCAAGTACATATTTTTATTTTCTT [XGTACX_site2160]	9.39
ACTTAATATCGGTACACACACAAGATAAGAATTATG [CACACA_site894]	9.82
AAGATAAAATGATGCACACAAAAGGGTGTAATATAT [CACACA_site1706]	9.71
TCTTCTTTTTTTTTTTTGTATTATTATAAATATTAT [CACACA_negctrl_site1668]	9.46
GAAGTTTTCTTAAAGATGCACTTTTTAAAAATAAAA [GTGCAC_site9941]	8.62
TTTTTTTTTTTTAATGCACACAATATATAATATGTA [CACACA_site3694]	9.23
TTTTTTTTTTTTCAATCACACATGTTTTAATTATTT [CACACA_site5532]	9.38
TGTACGTTTTATAACACACACACAAAAAAAAAAAAA [CACACA_site3875]	9.64
TCATTTCACAGACACACACACACAAGATATTTCCTT [CACACA_site7774]	10

Sequence	gcPBM binding intensity (ln)
TGTAATAATATTTATGTGCACATATATTAAACTATA [GTGCAC_site9584]	9.15
CCTCATACGAAATATAAACACACATACAATAAATAA [CACACA_site8620]	9.67
TATGCACTTTAGGGCAGTACGTCAACATTATCTTTA [XGTACX_site3382]	9.02
ATTTTTTTCATAGACACACACAATATATCTGTTTCC [CACACA_site3023]	9.83
ATAAATTTTTTTTTTTTTTTTTTTTTTTTTTTTTTT [CACACA_negctrl_site508]	9.28
TGTTAAAATTATTTGGTGCACTTGTTTTACCTTATT	9.29
TATATTTATTATAACACACACATATAAATATTATAG [CACACA_site6726]	9.67
CATTATTCTTTTAATATACACACTTTGTCTTTTCGC [CACACA_site2762]	9.41
ATATTATTATATATAGTGCATATTATTATTTTTATT	9.31
TCTCATAGTAAACACACACACACACCCACATATATA [CACACA_site5034]	10.3
TATTTTCATTATACTACTTCGAAGATACCCTTTTTT [CACACA_negctrl_site256]	9.21
AGATAAATATATTGTAGTACAGGAGCATAAATATAT [XGTACX_site8267]	9.56
TATAAACATTAAAGGTGTACAATTTAATTTCAATTT [XGTACX_site2944]	9.12
GTTCTTCCTTGTAAATGTACAAATACAAAATGTTCC [XGTACX_site6738]	9.22
GATATATATGTTCACACACACATGGAAATATATATA [CACACA_site4371]	9.84
ATATCATAAAAAATGTGTACATATATGAACATATAA [XGTACX_site2239]	9.31
TTAAGATCCTAAAAAACACACAATTGCGAATAATAA [CACACA_site6005]	9.37
GGAAATTAACAGAACACAATGTAACAATTTCTAACA [CACACA_negctrl_site1250]	9.33
TTTCTTCTTCAATGTTGTACTTTTCTCTTTTCTTAA [XGTACX_site1017]	9.49
GTTCATAAAAATTTTTGTACCCATAAAATATTCCTC [XGTACX_site8611]	9.09
GTAGGTGTTTTTGGTTGTACATATAAATATATATAC [XGTACX_site3380]	9.52
TTTTTTTTTTTTAATTGTACTTATTAAAAAAAGCAA [XGTACX_site8713]	8.45
AAAAAATGAAAAAACTGTACGCAATTTTGTTTTTAT [XGTACX_site2299]	9.2

Sequence	gcPBM binding intensity (ln)
AAGTTTTTTTTTATCACACACAAAAAAAAAAATATA [CACACA_site1362]	9.34
AAAAAAAAAAAAAAGTGTACCTTCAAAATAATATTG [XGTACX_site2844]	9.09
ATAAATATAAAACACACACACATATTATATATATAT [CACACA_site3064]	10.1
CTATATATAACCCATGTGCACTTTTTATGTACAATA	9.41
TCTTTCCTTATTAAAACACACAAATACATTATTTAA [CACACA_site2147]	9.12
CCTTTTTCTACTTTCTCACACATATTAAGAATTATA [CACACA_site5621]	9.37
AAAAAATGTTATAAAAGTACATAATTTATCTACCAT [XGTACX_site3035]	9.17
AATTCTTTATTATATGCACACGTACATATAATATAT [CACACA_site8621]	9.38
TTTAAAAAATAATATTGTACTATTCTCCCAATTTCT [XGTACX_site7079]	8.95
TAACTTTGGAGGAGCTGTACGATTATTTTGATCCTT [XGTACX_site2514]	9.36
AAAAAATTTCAAATAACACACACTAATATAAATATG [CACACA_site6783]	9.78
ATATACTGTATGAAAGCACACATACTTATTACTAAC [CACACA_site9384]	9.42
TTTTTATATAATTTAACACACATTTCATATAAAAAA [CACACA_site3103]	9
ATGTGAAAATAAGACACACTCAAAAGGTTTATATTA [CACACA_site4595]	9.31
AATTGTTTTTTTTTCTTATTTTATGTTATACACACA [TGCATGCA_negctrl_site380]	9.92
AAAAAAAAAAAAAACACATGCAGAAGAAAAAAAATA [TGCATGCA_site545]	9.62
AAATGAACATATATGTGTACTTATATTTTTCTAAAT [XGTACX_site3388]	9.24
ATATATTTTTCTTTACGTACGAAGCAAAATAACATT [XGTACX_site8145]	9.18
AAAAAAAAAAAAAAAGTGCATATATAAATATTGTAT [GTGCAC_site9459]	9.27
TCATTAAATGTTTAGGTGCATACTTTAATTTTTAAT [GTGCAC_site9906]	9.14
ATTATATAAGTACACAAACAAGTATGAGATTCAAAA [GTGCAC_negctrl_site119]	9.34
TGTTTTAAACTAATTTGTACATAGTTATTTATATTT [XGTACX_site7196]	9.3
TATTAATTTCGGGAAGTGCATTATGTTTATAGAATA	9.03

Sequence	gcPBM binding intensity (ln)
CCATATATTTGGTATAGTACTTTTTATTTTATTTCA [XGTACX_site8933]	9.32
AAAACGCAGTTTAATATACACACCAAAAAAAAAAAA [CACACA_site3036]	9.32
CACAAATATATACATACACACATATATACACATATA [CACACA_site8024]	9.86
TTTGAGATGTGGTGTACACAAAATTAGGTACACATC [CACACA_site5773]	9.28
TTTTATATTTATTTTTGTACATAAATGATCTCAAAT [XGTACX_site7768]	9.02
TGTTTTTAAAAATATACACACACAGATATTATATAT [CACACA_site8162]	9.66
ATATATATATATTTATGTACGCATTTATAGACGTAG [XGTACX_site6031]	9.1
AAATATTATAATAATTGTACTATATATACAGTTATT [XGTACX_site1963]	9.3
AAAAAAAAAAAATTATGTACATATTATATATAATGG [XGTACX_site2885]	9.2
TAAAATATGTCATGGGTGCTTCTTTTTATACCTATG [GTGCAC_site9888]	9.35
TATGATAACCATAATTGTACAGAATGAAACGTAAAT [XGTACX_site1653]	9.55
ACTTAAATAATACATACACACATGTACTTACAGAAA [CACACA_site8458]	9.46
AGAAAAAAAAAAAAAAATAAAAAAATAAATAAATAA [GTGCAC_negctrl_site161]	8.96
TATGGGTTTATATAGGTGCAATATATGTATATATAA	9.26
TATACCACCCGATATACACACTTGTAGACATCTTTT [CACACA_site4268]	9.48
AGCAATATTTATTAAAGTACGTAAAAAAAATTCTCA [XGTACX_site6550]	9.03
AACCATTGGGAAAGGGTGCACATATATATATATATA	9.25
TATATAGTTTATATTTGTACATATAGACATTTATAA [XGTACX_site6414]	9.04
ACAAAACTCTTTAATTGTACAAATATAATATAAAAA [XGTACX_site5690]	9.12
CAAAGCATAGTATGATGTACAAATGTTCCTATAATA [XGTACX_site8642]	9.24

Reference: the supplement of paper PMC11417369
